# Source: a collection of fitness landscapes (doi:10.1016/j.celrep.2020.107928)
# Whole data set: some 81,000 sequences, median “one-hybrid fitness for binding parS DNA” near -0.17, cut for the highest 2% near 0.51. The list shows a part of the results.
# B1: Caulobacter ParB omega fusion; a variant is named by its letters at X, in order, B8GW30 (parent)
# chain: MESVVVGEPGMSEGRRGLGRGLSALLGEVDAAPAQAPGEQLGGSREAPIEILQRNPDQPRRTFREEDLEDLSNSIREKGVLQPILVRPSPDTAGEYQIVAGERAWRAAQRAGLKTVPIMVRELDDLAVLEIGIIENVQRADLNVLEEALSYKVLMEKFERTQENIAQTIGKSXSHVANXMRLLXLPDEVQSYLVSGELTAXHARAIAAAADPVALAKQIIEGGLSVRETEALARKAPNLSAGKSKGGRPPRVKDTDTQALESDLSSVLGLDVSIDHRGSTGTLTITYATLEQLDDLCNRLTRGI
# Variants of: B1
# Assay: one-hybrid fitness for binding parS DNA (scaled: cognate 1, non-cognate 0); higher = stronger binding
# Conditions: with parS DNA site
# In short: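 Caulobacter ParB libraries with four specificity codons randomised were screened by bacterial one-hybrid selection in the E. coli USO strain, using a HIS3 reporter whose site lies 19 bp from the promoter. Selection ran for 48 hours at 37°C on M9 lacking histidine, with 0.1 mM IPTG and 5 mM 3-AT. Plasmids were Illumina-sequenced before and after selection, three replicate libraries were pooled, and variants with under 10 reads were dropped. Fitness is the log change in each variant's read ratio to wild type, rescaled against the cognate and non-cognate sites.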
row,Variant,one-hybrid fitness for binding parS DNA
1,NIWW,≤ 0.2
2,WASN,≤ 0.2
3,GNPF,≤ 0.2
4,CAAL,≤ 0.2
5,PLEV,≤ 0.2
6,RGAD,≤ 0.2
7,AEYS,≤ 0.2
8,ANKY,≤ 0.2
9,RGCI,≤ 0.2
10,QVAQ,≤ 0.2
11,DKHD,≤ 0.2
12,QFEN,≤ 0.2
13,SAQI,≤ 0.2
14,QEAI,≤ 0.2
15,HAAK,≤ 0.2
16,TARM,≤ 0.2
17,YFKT,≤ 0.2
18,FGHG,≤ 0.2
19,GGWK,≤ 0.2
20,RISY,0.477
21,GSGA,≤ 0.2
22,HADG,≤ 0.2
23,SDHC,≤ 0.2
24,SAYY,≤ 0.2
25,RAQY,0.469

row,Variant,one-hybrid fitness for binding parS DNA
1,AWCV,≤ 0.2
2,HQNY,≤ 0.2
3,ERDG,≤ 0.2
4,CRFC,≤ 0.2
5,RVNP,≤ 0.2
6,YYFS,≤ 0.2
7,VKNY,≤ 0.2
8,IRRI,≤ 0.2
9,GAQV,≤ 0.2
10,REKV,≤ 0.2
11,TFNF,≤ 0.2
12,PPPV,≤ 0.2
13,CDKT,≤ 0.2
14,VNTV,≤ 0.2
15,ASSQ,≤ 0.2
16,PECN,≤ 0.2
17,LCYF,≤ 0.2
18,GESL,≤ 0.2
19,SFHA,≤ 0.2
20,SFKH,≤ 0.2
21,GTPI,≤ 0.2
22,QYRN,≤ 0.2
23,CVNE,≤ 0.2
24,HYMC,≤ 0.2
25,LATH,≤ 0.2

row,Variant,one-hybrid fitness for binding parS DNA
1,HILA,≤ 0.2
2,GSCP,≤ 0.2
3,PTAE,≤ 0.2
4,CRIY,≤ 0.2
5,TRSW,≤ 0.2
6,AKTG,≤ 0.2
7,ARAR,≤ 0.2
8,LMLR,≤ 0.2
9,AGRL,≤ 0.2
10,FITF,≤ 0.2
11,TLRL,≤ 0.2
12,LHIG,≤ 0.2
13,LNEL,≤ 0.2
14,FYLW,≤ 0.2
15,YNIS,≤ 0.2
16,QMPW,≤ 0.2
17,QHNH,≤ 0.2
18,NNYS,≤ 0.2
19,TEVV,≤ 0.2
20,TMWI,≤ 0.2
21,RSCH,0.223
22,TFYR,≤ 0.2
23,QDHR,≤ 0.2
24,HIDC,≤ 0.2
25,DTSA,≤ 0.2

row,Variant,one-hybrid fitness for binding parS DNA
1,LPQW,≤ 0.2
2,KNKW,≤ 0.2
3,HWSQ,≤ 0.2
4,IRQK,≤ 0.2
5,KKWC,≤ 0.2
6,TVIW,≤ 0.2
7,WWVS,≤ 0.2
8,QCYL,≤ 0.2
9,RIRN,0.395
10,QDKL,≤ 0.2
11,FPCS,≤ 0.2
12,TQYN,≤ 0.2
13,LATE,≤ 0.2
14,ANML,≤ 0.2
15,RQHQ,≤ 0.2
16,QNNG,≤ 0.2
17,QTHV,≤ 0.2
18,APDT,≤ 0.2
19,WRGH,≤ 0.2
20,TLDM,≤ 0.2
21,RVET,0.691
22,ESKR,≤ 0.2
23,SWSR,≤ 0.2
